# Reference: PubChem BioAssay AID504466 (National Center for Advancing Translational Sciences (NCATS), 2011)
# In all, about 330,000 compounds went through this assay and about 4,200 (1.3%) were called active. Inconclusive results, whose numbers are uncertain, are shown with a selection of clear calls. The call rests on the fitted dose curve; in most records, active means well fitted activation curve with a large enough effect; inconclusive means small, poorly fitted or top-dose-only effect; inactive means no such curve, though single readings can be large or run the other way. Potencies of inconclusive entries are doubtful fits and often do not repeat.
# Assay: qHTS screen for small molecules that induce genotoxicity in human embryonic kidney (HEK293T) cells expressing luciferase-tagged ELG1; further: nearly all actives have a fitted effect of over 60% in size
# Conditions: HEK293T ELG1-luciferase reporter, luminescence, 16 h; series mostly up to 46 µM
# Summary of the method: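 Quantitative HTS format in 1536-well plates. HEK293T ELG1-luciferase reporter cells receive test compound and are incubated 16 hr at 37 °C, 5% CO2; ONE-Glo added, 30 min room temperature, then luminescence read.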
# Potency means the concentration at half of the fitted maximal effect; tags describe the fitted curve by direction and shape.
row,SMILES,Potency
1,CCN1CCN(c2c(S(=O)(=O)c3ccc(C)c(C)c3)cnc3ccc(F)cc23)CC1,inactive
2,CCN(C(=O)CSc1nc2ccc(Cl)cc2[nH]1)C1CCS(=O)(=O)C1 (configuration not stated),inactive
3,COc1cccc(C(=O)N/N=C/C(Br)=C/c2ccccc2)c1,inactive
4,CCN(CC)c1ccc(C(=O)OCC(=O)c2ccco2)cc1,"inconclusive: 14.6 µM [activator, partial curve]"
5,Cc1ccc(NC(=O)CN2CCCCCC2)cc1[N+](=O)[O-],"inconclusive: 6.31 µM [activator, partial curve, poor fit]"
6,COc1ccc(C(=O)Nc2ccc(C3(C#N)CCCC3)cc2)cc1OC,"inconclusive: 20.6 µM [activator, single point]"
7,CCCN(C(=O)c1ccco1)c1nnc(-c2ccccc2C)s1,"inconclusive: 32.6 µM [activator, partial curve, poor fit]"
8,CC1CCCN(C(=O)COC(=O)Cc2c(F)cccc2Cl)C1 (configuration not stated),"inconclusive: 16.4 µM [activator, partial curve, poor fit]"
9,CCOc1cc(CN2CCC(n3nccc3NC(=O)C3CC3)CC2)ccc1O,inactive
10,CCOc1cc(/C=N/N=C(\N)c2nonc2N)cc(Br)c1OCc1cccc2ccccc12,"inconclusive: 20.6 µM [activator, partial curve, poor fit]"
11,CCc1nn(CC(=O)N2CCN(Cc3ccc4c(c3)OCO4)CC2)c(=O)c2cc3occc3n12,inactive
12,Cc1cc(C(=O)N/N=C/c2cc(Br)ccc2OC(=O)c2ccccc2Cl)n[nH]1,"inconclusive: 29.1 µM [activator, single point]"
13,O=C(Cc1ccccn1)c1ccc(Cl)cc1,"inconclusive: 10.3 µM [activator, partial curve, poor fit]"
14,C#CCn1c(=NC(=O)c2cccs2)sc2cccc(OC)c21,"inconclusive: 20.6 µM [activator, partial curve]"
15,Cc1ccc(NC(=O)CCn2nnc3ccccc32)cc1,"inconclusive: 20.6 µM [activator, partial curve, poor fit]"
16,CS(=O)(=O)c1ncc(Cl)c(C(=O)Nc2ccc(OC(F)F)cc2)n1,"inconclusive: 3.26 µM [activator, single point]"
17,COc1ccccc1/C=C\C(=O)NCC(=O)N/N=C(\C)Cc1ccccc1,inactive
18,Cc1ccc(Nc2nc(-c3ccccc3)cs2)nc1,active: 0.326 µM
19,N/C(=N\OC(=O)c1ccc([N+](=O)[O-])cc1)c1ccccn1,"inconclusive: 0.651 µM [activator, full curve]"
20,Cc1ccc(C(=O)NC2=NCCS2)cc1,"inconclusive: 8.2 µM [activator, partial curve]"
21,CCCn1c(C)cc(/C=C(\C#N)C(=O)OCC(=O)Nc2cccc(S(N)(=O)=O)c2)c1C,inactive
22,CN(C)CCNC(=O)c1cc2sc3ccccc3c2s1,"inconclusive: 23.1 µM [activator, partial curve, poor fit]"
23,CN(C)/C=N/c1ncc(C(=O)c2ccccc2)s1,active: 9.2 µM
24,Cc1cc(C)nc(NC(=O)/C=C/c2ccccc2Cl)c1,"inconclusive: 5.8 µM [activator, partial curve]"

row,SMILES,Potency
1,CCCc1noc(-c2ccc(-c3ccccc3)cc2)n1,"inconclusive: 3.66 µM [activator, full curve]"
2,CCCCCC(=O)Oc1cccc(N2C(=O)C3CCCCC3C2=O)c1 (configuration not stated),inactive
3,CC1(C)CC(=O)c2sc(N3CCCCC3)nc2C1,"inconclusive: 18.4 µM [activator, partial curve, poor fit]"
4,Cc1nc2c(-c3ccc(Cl)cc3)cnn2c(N)c1-c1ccc(F)cc1,active: 6.51 µM
5,CCCOc1cccc(C2C(C(=O)c3ccc(C)o3)=C(O)C(=O)N2c2nc(C)c(C(C)=O)s2)c1 (configuration not stated),inactive
6,O=C(c1ccc2c(c1)OCCO2)N1CCN(c2ncc(C(F)(F)F)cc2Cl)CC1,"inconclusive: 29.1 µM [activator, single point]"
7,O=C(NCc1ccco1)c1nc2ccccc2s1,"inconclusive: 18.4 µM [activator, single point]"
8,O=C(Nc1ncccc1Cl)c1cc2ccccc2o1,active: 7.3 µM
9,Cc1cc2c(NCCc3ccccc3)ncnc2s1,"inconclusive: 8.2 µM [activator, partial curve]"
10,O=C(Nc1ccc(S(=O)(=O)N2CCCc3ccccc32)cc1)C1CCCO1 (configuration not stated),"inconclusive: 29.1 µM [activator, single point]"
11,CCOC(=O)c1c(NC2OC(=O)c3c2ccc(OC)c3OC)sc(C(=O)OC(C)(C)C)c1C (configuration not stated),"inconclusive: 20.6 µM [activator, partial curve, poor fit]"
12,Cc1cc(N2CCOCC2)n2ncc(-c3ccc(Cl)cc3)c2n1,"inconclusive: 1.16 µM [activator, full curve]"
13,CN(C)c1nc(N)c([N+](=O)[O-])c(NCc2ccccc2)n1,"inconclusive: 23.1 µM [activator, partial curve, poor fit]"
14,Cc1cc(C)n(CC(C)NCc2cn[nH]c2-c2ccc(C)c(C)c2)n1 (configuration not stated),inactive
15,Cc1ccsc1/C=C/c1ccc2cccc(O)c2n1,active: 9.2 µM
16,Cc1cc(C(=O)N/N=C/c2ccc([N+](=O)[O-])o2)c(C)o1,inactive
17,C/C(=N\Nc1nncc2ccccc12)c1ccc(Cl)c([N+](=O)[O-])c1,"inconclusive: 29.1 µM [activator, single point]"
18,O=C(NCCc1ccccc1)c1ccccc1F,"inconclusive: 2.31 µM [activator, full curve, poor fit]"
19,O=C(c1cccc(S(=O)(=O)N2CCN(c3ccc(F)cc3)CC2)c1)N1CCCC(C(F)(F)F)C1 (configuration not stated),"inconclusive: 5.8 µM [activator, full curve]"
20,COc1ccc(C(CCNCc2ccc(F)cc2)c2ccc(F)cc2)cc1 (configuration not stated),inactive
21,Cc1c(C(=O)Nc2ccc3c(c2)OCCO3)oc2ccc(Br)cc12,"inconclusive: 10.3 µM [activator, partial curve, poor fit]"
22,O=C(O)CCCc1nc2ccccc2s1,inactive
23,COC(=O)Cc1c(C)c2ccc(OC(=O)c3ccco3)cc2oc1=O,inactive
24,Cc1cccc(NC(=O)CSc2ccc3nnc(-c4cccnc4)n3n2)c1,inactive

row,SMILES,Potency
1,COc1ccc(C(=O)CSc2nnc(-c3ccc(C)cc3)o2)cc1,"inconclusive: 23.1 µM [activator, partial curve, poor fit]"
2,NC(=O)C1CC(=O)N(c2ccc(OCc3ccc([N+](=O)[O-])cc3)cc2)C1 (configuration not stated),"inconclusive: 11.6 µM [activator, partial curve, poor fit]"
3,Cc1ccc(NC(=O)CN2CCN(S(=O)(=O)c3cccs3)CC2)cc1S(=O)(=O)N(C)C,inactive
4,COc1ccc(NC(=O)c2cccc(NC(=O)c3ccccc3)c2)c(OC)c1,inactive
5,Cc1ccc2nc(-c3ccccn3)c(NC3CCCC3)n2c1,inactive
6,O=C(O)c1ccc(Nc2nc(-c3cccnc3)cs2)cc1,inactive
7,COc1ccc(-c2csc(/C(C#N)=C\c3ccc(O)c([N+](=O)[O-])c3)n2)cc1OC,inactive
8,COc1ccc(-n2ncc3c(NCc4ccco4)ncnc32)cc1,"inconclusive: 6.51 µM [activator, partial curve]"
9,Cc1cnc(N)c2c(=O)oc3ccccc3c12,"inconclusive: 23.1 µM [activator, partial curve, poor fit]"
10,CC(C)(C)C(=O)NC1CCN(S(=O)(=O)c2ccc(C(F)(F)F)cc2)CC1,inactive
11,Cc1ccc(C)c(NC(=O)CSc2nccn2Cc2ccco2)c1,"inconclusive: 16.4 µM [activator, partial curve, poor fit]"
12,O=c1c2ccccc2oc2ccc(-c3ccc4cc[nH]c4c3)cc12,"inconclusive: 1.03 µM [activator, partial curve]"
13,COc1cccc(C(=O)OCC(=O)NCCNC(=O)COC(=O)c2cccc(OC)c2OC)c1OC,inactive
14,COc1cc(Nc2ccccc2Cl)c([N+](=O)[O-])nc1[N+](=O)[O-],"inconclusive: 18.4 µM [activator, partial curve, poor fit]"
15,CCC(=O)Nc1ccc2c(c1)Cc1cc(NC(=O)CC)ccc1-2,"inconclusive: 32.6 µM [activator, partial curve, poor fit]"
16,CCn1cc(SCC(=O)N2CCOCC2)c2ccccc21,active: 18.4 µM
17,O=c1[nH]c2ccccc2nc1/C=C/c1ccccc1,"inconclusive: 4.11 µM [activator, full curve]"
18,Cc1ccc2c(COC(=O)C34CC5CC(CC(C5)C3)C4)cc(=O)oc2c1,"inconclusive: 8.2 µM [activator, partial curve, poor fit]"
19,O=C(NC(=S)NC1CCCCCC1)c1cncc(Br)c1,"inconclusive: 20.6 µM [activator, partial curve]"
20,NC(=O)C1CCN(C(=O)c2ccc(-c3ccccc3Cl)o2)CC1,"inconclusive: 9.2 µM [activator, partial curve]"
21,COc1cc(C2CC(c3cccnc3)=NN2c2ccc(F)cc2)cc(OC)c1OC (configuration not stated),"inconclusive: 23.1 µM [activator, partial curve, poor fit]"
22,CCN1CCN(C(=O)CSc2ccc(C)cc2)CC1,"inconclusive: 18.3 µM [activator, single point]"
23,CCN1CCN(c2cc(C)c3cc(NC(=O)c4ccc5c(c4)OCO5)ccc3n2)CC1,inactive
24,NS(=O)(=O)c1ccc2nc(NC(=O)C3=COCCO3)sc2c1,"inconclusive: 2.31 µM [activator, partial curve, poor fit]"
